Laboratory results taken from PMC12136788.
This is one part of the list.

B1: chr16:23064695:23064796:-|3pUTR|ENSG00000103404|msi1|total|mutant (ssRNA)
RNA: GGGAGUUCUACAGUCCGACGAUCGUUUAUGGAGGGCCUUCUUUGAGCACAGAGGCAAAACUGAAAGCUUCAGGGAUUUGCUGCCGCUGAGGAGCCCUGGGAGCACAGCCCAUCAAGCAAGGGAUGUGAUGGUGUCCUAAAUGGCAACAGAGGAUUGAGCAUCA
B2: chr1:67003359:67003460:-|3pUTR|ENSG00000116704|msi1|FALSE|unique (ssRNA)
RNA: GGGAGUUCUACAGUCCGACGAUCACUCAAAAGCCGCAAAUCUGUAAAUUGGAUUAAGAACACCUGCCCUACCUACCCGGCAAUAGUGUGAAUCCAAAUGCUGCAAUGUGAGAUGAGGUACAAGUAAAGAGCUGUGUUUUGUAACAACAGAGGAUUGAGCAUCA
B3: chr13:99866285:99866388:+|CDS|ENSG00000125246|unk|FALSE|unique (ssRNA)
RNA: GGGAGUUCUACAGUCCGACGAUCUAUUCUCUACGCCCGGCAAAAGAUUGUUGUCAUAGCGAAAGCCUUUGGUCUCCAAGCCAUAGAUCUGGUGUACAUUGACUUUCGAGAUGGAGCUGGGCUGCUUAGACAGUCACGAGAAGGCAACAGAGGAUUGAGCAUCA
B4: chr12:56416428:56416529:-|3pUTR|ENSG00000111602|msi1|total|mutant (ssRNA)
RNA: GGGAGUUCUACAGUCCGACGAUCAUGUUCUUACCCAUUCUUGGAAACGUCAGCUUUCUUGCUUCCUGUGCUUCCAGCCGAGGCCGGGCAAAGGUGAGAUUGAGAAAACCGCCAUUCAGCUCAGGAAGGCUUCUAAGUAAAGGACAACAGAGGAUUGAGCAUCA
B5: chr7:132784869:132785660:-|three_prime_utr|ENSG00000106554|control|control|control (ssRNA)
RNA: GGGAGUUCUACAGUCCGACGAUCCUUUCAGAAUGAGCAAAACACCAUCAACGUUAAUUCCAGAGAUGGAACAUUUUUUUUCCUAGUGAGAAAACAACCCAUUUGAAGAGAAGACCACUAAUGAGAAGACCACUAAAGAGAGACCAACAGAGGAUUGAGCAUCA
B6: ENSG00000198589:be:win_6401|CDS|ENSG00000198589|bound_else_gene|NA|bound_elsewhere_windowed (ssRNA)
RNA: GGGAGUUCUACAGUCCGACGAUCGUUAUCUUUUGCAAAAUACAGCCCUGGAGAUCUUUAUGGCAAACAGAGUUGCUGUGAUGUUCAACUUCCCAGACCCUGCAACAGUAAAGAAAGUGGUUAACUAUCUACCUCGUGUUGGCGCAACAGAGGAUUGAGCAUCA
B7: ENSG00000198589:be:win_7401|CDS|ENSG00000198589|bound_else_gene|NA|bound_elsewhere_windowed (ssRNA)
RNA: GGGAGUUCUACAGUCCGACGAUCUUCUCAACUACUCAUAGAGCCCCAUCCUCCCAGAGGUUCUGCCAUGCAAGUGAGUCCAUUGAUGUUCACAGACAAAGCCCAGCAGGAUGUUAUCAUGGUCCUCAAGUUUCCCUCCAACUCCAACAGAGGAUUGAGCAUCA
B8: chr17:15571490:15574098:-|three_prime_utr|ENSG00000251537|control|control|control (ssRNA)
RNA: GGGAGUUCUACAGUCCGACGAUCGGAAAAUGAAACAAAUGACAAUGUCAUUGCAUUGAUUUUGUUCUCAUUAAAUGGUAUUUUAGCUAUAAACAUUUUCCCCUUUGAUUUGCAAAAAAAAAUUAUAGAAAAUGUCUAUGUUGCCAACAGAGGAUUGAGCAUCA
B9: chr10:32033860:32033975:-|CDS|ENSG00000170759|unk|total|mutant (ssRNA)
RNA: GGGAGUUCUACAGUCCGACGAUCCACAGUGGAUAAAGAUAUUACUCUUACCAAUGAUAAACCAGCAACCGCAAUUGGAGUUACCGGAAAUUUUACUGAUGCUGAAAGAAGAAAGUGUGAAGAAGAAAUUGCUAAAUUAUACAACAACAGAGGAUUGAGCAUCA
B10: chr19:37127587:37127689:+|CDS|ENSG00000197050|unk|total|mutant (ssRNA)
RNA: GGGAGUUCUACAGUCCGACGAUCUAUGCAUGUAAGGAAUGUGGGAAGGCCUUUACUCAAAGCUCACAACUUAUUUUACAUCACCGAAUUCAUACUGGUGAAAAACCAUAUAAAUGUGAAGAAUGUGGGAAAGCCUUUAUUCGUCAACAGAGGAUUGAGCAUCA
B11: chr5:154417748:154417849:+|3pUTR|ENSG00000164574|msi1|total|mutant (ssRNA)
RNA: GGGAGUUCUACAGUCCGACGAUCCAGCACCAGCUUUACAGGGCAGUGUUUCAGAUGGCCCUGAGCCCACGGAAAAGGCCAGGCCGACCUCCAAACCCGAAAUGCUGGCUGAUUUGCCCUGAUCCAUGCUUCCAUUUCCCUGUCCAACAGAGGAUUGAGCAUCA
B12: chr9:76611375:76614569:-|three_prime_utr|ENSG00000106772|control|control|control (ssRNA)
RNA: GGGAGUUCUACAGUCCGACGAUCAUGUUACCUUUUUCCACUUUGCACUACCUGGUGCCAUUCUAAAUUUCUAAGGGGAAAAAUAGAAAGUUUGUUUACUCUUAAGAUAUUUUAUGAAAUUGUGUGUACUUUCCUAUUUUGCCACAACAGAGGAUUGAGCAUCA
B13: chr6:52502144:52502313:-|3pUTR|ENSG00000065308|msi1|total|mutant (ssRNA)
RNA: GGGAGUUCUACAGUCCGACGAUCUCAGCCAUUCACAAGCAUUCAAAACCAAACCAAACAGCAGUUCAUAUACCUGCCUGAGACCGGCUGGUCCUCACCUCCAGAGCCAGCCAGCCCCGUCAGGGGCCAAACUUACUACCUUGACAACAGAGGAUUGAGCAUCA
B14: chr13:106490488:106490589:-|3pUTR|ENSG00000125266|msi1|FALSE|unique (ssRNA)
RNA: GGGAGUUCUACAGUCCGACGAUCAGCCAUCAGAAGUUACUUUUAGGAUGGGGGAGAGGGGCGAGAAGGGGAAAAAUGGGAAAUAGUCUGAUUUUAAUGAAAUCAAAUGUAUGUAUCAUCAGUUGGCUACGUUUUGGUUCUAUGCAACAGAGGAUUGAGCAUCA
B15: chr2:227556236:227556337:+|3pUTR|ENSG00000173744|msi1|total|mutant (ssRNA)
RNA: GGGAGUUCUACAGUCCGACGAUCUGUUGAAUGCCUUUUUGCAAUGAUGACUGAGUUGUUAUCACCGUAUUUUAAAACCUGUACCGUGUUUCCGACUUGUUAAAACAUUGCUGUCCCGUGUACAUCCCGCUAAAAGUGUGGUUUCAACAGAGGAUUGAGCAUCA
B16: chr1:202726062:202726163:-|3pUTR|ENSG00000117139|unk|FALSE|unique (ssRNA)
RNA: GGGAGUUCUACAGUCCGACGAUCGAAAUGCACCUGAUUUGCCAUUAUACCCACCAUCAAAAGCAACAUGGCCCUUUGGGUAUUAGUGCAAGAUUAGCCUAAGAAUAGAGUAGAUCUCUACCUGGAAGAGGGUGAAACAUGGCUCAACAGAGGAUUGAGCAUCA
B17: ENSG00000107863:be:win_4151|CDS|ENSG00000107863|bound_else_gene|NA|bound_elsewhere_windowed (ssRNA)
RNA: GGGAGUUCUACAGUCCGACGAUCAUUCAGCUACUAGUGACUCAACAAAAUCUAAGGGUUCUUGGGGAUCUGGAAAGGAUCAGUAUAGCAGGGAACUGCUUGUGUCCUCCAUCUUUGCAGCUGCUAGUCGCAAGAGGAAGAAGCCAACAGAGGAUUGAGCAUCA
B18: chr5:171862525:171862626:-|3pUTR|ENSG00000072803|msi1|FALSE|unique (ssRNA)
RNA: GGGAGUUCUACAGUCCGACGAUCGACAGUGCAUGGAAAGGACGUUGGCAUCCAAUUGGCACUCCUUCUCCCUUAUUCAAUAUUAGGUUUGAUUUGCCCUUCGCCAUUGUUUCCAAAGAUCAAGGAAUGUCAAUAACAUUUUAACAACAGAGGAUUGAGCAUCA
B19: chr5:133074000:133074114:+|CDS|ENSG00000170606|unk|total|mutant (ssRNA)
RNA: GGGAGUUCUACAGUCCGACGAUCUCUUGCAUAUGGAAUCUAUAAGCAGGAUCUUCCUGCCUCCGAAGAGAAACCAAGAAAUGCCGUUUUUGCCGACAUGGGCCACUCUGCUUAUCAAGUUUCUGUAUGUGCAUUUAACCGAGGCAACAGAGGAUUGAGCAUCA
B20: ENSG00000029725:stop:overlap|stop_codon|ENSG00000029725|stop_codon|NA|stop_codon (ssRNA)
RNA: GGGAGUUCUACAGUCCGACGAUCAAAAUGAAAUGAAAAAGGAUCCCAUCCAGGAUACCAUAUUGCAUUUAGUUGUGUCUCCUUAGAUGCCUCUUGGCUGUGACAGUUUCUCAGAUUUUUCUUGUUUUUAAUGACCUUUCUGUCCAACAGAGGAUUGAGCAUCA
B21: chr12:54238554:54238587:-|3pUTR|ENSG00000094916|msi1_unk|FALSE|overlapping (ssRNA)
RNA: GGGAGUUCUACAGUCCGACGAUCGGGAGCACCCAUUUUAAACCUGGAGAGAACCAUGAUGUUUUCUUCUUCAAAUAACAAUCUAGUUUUUUUUCCCCCAGUACUAAAAUUGUAUUGUCUUUCAGACAAUAUAAUUUUUAUUUACAACAGAGGAUUGAGCAUCA
B22: ENSG00000198589:be:win_5401|CDS|ENSG00000198589|bound_else_gene|NA|bound_elsewhere_windowed (ssRNA)
RNA: GGGAGUUCUACAGUCCGACGAUCGAACACGCUUUGGAAAAGGCAGCUCCUCUCCUUCGUGAGAUUUUUGUGGAUUUUGCACCUUUUCUUUCUCGGACACUUUUGGGUAGCCAUGGACAAGAACUGCUUAUAGAAGGAACAAGUCAACAGAGGAUUGAGCAUCA

What follows are binders tested against MSI1 full-length (mouse, UniProt Q61474 1-362) (assay: nsRBNS (natural sequence RNA bind-n-seq); RBNS binding buffer (assumed for nsRBNS): 25 mM Tris pH 7.5, 150 mM KCl, 3 mM MgCl2, 0.01% Triton X-100, 500 ug/ml BSA, 20 U/ml SUPERase-In, 4 C; UNK is unkempt and MSI1 is Musashi-1; names of the RNAs are library labels; protein concentration not given here; high values mean tight binding).
Sequence of UniProt Q61474 (Q61474 whole entry): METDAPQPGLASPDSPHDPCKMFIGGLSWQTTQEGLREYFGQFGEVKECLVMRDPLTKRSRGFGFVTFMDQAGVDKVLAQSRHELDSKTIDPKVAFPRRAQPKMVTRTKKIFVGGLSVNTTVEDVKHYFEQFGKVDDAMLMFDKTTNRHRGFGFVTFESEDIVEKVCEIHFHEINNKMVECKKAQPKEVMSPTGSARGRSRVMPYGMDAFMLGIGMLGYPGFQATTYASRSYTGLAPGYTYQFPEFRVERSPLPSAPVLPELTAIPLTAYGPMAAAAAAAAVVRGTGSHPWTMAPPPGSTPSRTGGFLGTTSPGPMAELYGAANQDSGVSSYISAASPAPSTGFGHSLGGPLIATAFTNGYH

**Q.** For B1, which binding signal is on record?
**A.** The binding signal was 0.521 enrichment R.

**Q.** How did the binding signal turn out when B2 was run?
**A.** The binding signal was 0.702 enrichment R.

**Q.** With B3 as the binder, how does the binding signal read?
**A.** The binding signal was 0.39 enrichment R.

**Q.** Which binding signal does the source give for B4 here?
**A.** Its binding signal is 0.362 enrichment R.

**Q.** With B5 as the binder, how does the binding signal read?
**A.** Its binding signal is 0.397 enrichment R.

**Q.** Which binding signal does the source give for B6 here?
**A.** The binding signal was 0.424 enrichment R.

**Q.** With B7 as the binder, how does the binding signal read?
**A.** Its binding signal is 0.471 enrichment R.

**Q.** For B8, which binding signal is on record?
**A.** The binding signal was 0.478 enrichment R.

**Q.** How did the binding signal turn out when B9 was run?
**A.** The binding signal was 0.675 enrichment R.

**Q.** For B10, which binding signal is on record?
**A.** Its binding signal is 0.278 enrichment R.

**Q.** Which binding signal does the source give for B11 here?
**A.** Its binding signal is 0.437 enrichment R.

**Q.** Which binding signal does the source give for B12 here?
**A.** The binding signal was 1.45 enrichment R.

**Q.** With B13 as the binder, how does the binding signal read?
**A.** The binding signal was 0.877 enrichment R.

**Q.** B14 was tested. Which binding signal did it give?
**A.** Its binding signal is 10 enrichment R.

**Q.** For B15, which binding signal is on record?
**A.** Its binding signal is 0.214 enrichment R.

**Q.** For B16, which binding signal is on record?
**A.** Its binding signal is 1.06 enrichment R.

**Q.** For B17, which binding signal is on record?
**A.** Its binding signal is 0.389 enrichment R.

**Q.** B18 was tested. Which binding signal did it give?
**A.** Its binding signal is 0.699 enrichment R.

**Q.** Which binding signal does the source give for B19 here?
**A.** Its binding signal is 0.25 enrichment R.

**Q.** B20 was tested. Which binding signal did it give?
**A.** Its binding signal is 0.571 enrichment R.

**Q.** For B21, which binding signal is on record?
**A.** The binding signal was 2.06 enrichment R.

**Q.** B22 was tested. Which binding signal did it give?
**A.** The binding signal was 0.464 enrichment R.
